Assay results: the supplement of paper PMC8728848
Some of the results follow.

Columns and labels:
Assay in all cases: glycan array binding signal (z-score within array); higher = stronger binding
Conditions in all cases: glycan notation: IUPAC condensed, linker removed
[1] = molecular target: Fuc(a1-2)Gal(b1-4)GlcNAc(b1-3)Gal(b1-4)GlcNAc(b1-2)Man(a1-3)[Fuc(a1-2)Gal(b1-4)GlcNAc(b1-3)Gal(b1-4)GlcNAc(b1-2)Man(a1-6)]Man(b1-4)GlcNAc(b1-4)GlcNAc
Outline: (§1)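 Negative Z-scores can be read as non-binding. The Z-score is calculated within each array and then averaged across arrays of one protein sequence at different concentrations or buffers and across linkers. Arrays, 3228 in all, were curated from the Consortium for Functional Glycomics database and kept only where the protein sequence was available.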

[2] = molecular target: Fuc(a1-2)Gal(b1-4)GlcNAc(b1-3)Gal(b1-4)GlcNAc(b1-3)Gal(b1-4)GlcNAc
Outline: as §1

[3] = molecular target: Fuc(a1-2)Gal(b1-4)GlcNAc(b1-3)GalNAc
Outline: as §1

[4] = molecular target: Fuc(a1-2)Gal(b1-4)GlcNAc(b1-3)[Fuc(a1-2)Gal(b1-4)GlcNAc(b1-6)]GalNAc
Outline: as §1

[5] = molecular target: Fuc(a1-2)Gal(b1-4)GlcNAc(b1-3)[Fuc(a1-3)[Gal(b1-4)]GlcNAc(b1-6)]Gal(b1-4)Glc
Outline: as §1

[6] = molecular target: Fuc(a1-2)Gal(b1-4)GlcNAc(b1-6)GalNAc
Outline: as §1

[7] = molecular target: Fuc(a1-2)Gal(b1-4)GlcNAc6S
Outline: as §1

[8] = molecular target: Fuc(a1-2)Gal(b1-4)[Fuc(a1-3)]GlcNAc
Outline: as §1

[9] = molecular target: Fuc(a1-2)Gal(b1-4)[Fuc(a1-3)]GlcNAc(b1-2)Man(a1-3)[Fuc(a1-2)Gal(b1-4)[Fuc(a1-3)]GlcNAc(b1-2)Man(a1-6)]Man(b1-4)GlcNAc(b1-4)[Fuc(a1-6)]GlcNAc
Outline: as §1

[10] = molecular target: Fuc(a1-2)Gal(b1-4)[Fuc(a1-3)]GlcNAc(b1-2)[Fuc(a1-2)Gal(b1-4)[Fuc(a1-3)]GlcNAc(b1-4)]Man(a1-3)[Fuc(a1-2)Gal(b1-4)[Fuc(a1-3)]GlcNAc(b1-2)Man(a1-6)]Man(b1-4)GlcNAc(b1-4)GlcNAc
Outline: as §1

[11] = molecular target: Fuc(a1-2)Gal(b1-4)[Fuc(a1-3)]GlcNAc(b1-3)Gal(b1-4)[Fuc(a1-3)]GlcNAc
Outline: as §1

[12] = molecular target: Fuc(a1-2)Gal(b1-4)[Fuc(a1-3)]GlcNAc(b1-3)Gal(b1-4)[Fuc(a1-3)]GlcNAc(b1-3)Gal(b1-4)[Fuc(a1-3)]GlcNAc
Outline: as §1

[13] = molecular target: Fuc(a1-2)Gal(b1-4)[Fuc(a1-3)]GlcNAc(b1-3)GalNAc
Outline: as §1

[14] = molecular target: Fuc(a1-2)Gal(b1-4)[Fuc(a1-3)]GlcNAc(b1-3)[Neu5Ac(a2-6)Gal(b1-4)GlcNAc(b1-6)]Gal(b1-4)Glc
Outline: as §1

[15] = molecular target: Fuc(a1-2)Gal3S(b1-4)GlcNAc
Outline: as §1

[16] = molecular target: Fuc(a1-2)Gal6S(b1-3)GlcNAc
Outline: as §1

[17] = molecular target: Fuc(a1-2)Gal6S(b1-3)GlcNAc6S
Outline: as §1

Fuc(a1-2)Gal6S(b1-4)Glc = molecular target: Fuc(a1-2)Gal6S(b1-4)Glc
Outline: as §1

[18] = molecular target: Fuc(a1-2)Gal6S(b1-4)Glc6S
Outline: as §1

Fuc(a1-2)[Gal(a1-3)]Gal = molecular target: Fuc(a1-2)[Gal(a1-3)]Gal
Outline: as §1

[19] = molecular target: Fuc(a1-2)[Gal(a1-3)]Gal(b1-3)GalNAc
Outline: as §1

[20] = molecular target: Fuc(a1-2)[Gal(a1-3)]Gal(b1-3)GalNAc(b1-3)Gal(a1-4)Gal(b1-4)Glc
Outline: as §1

[21] = molecular target: Fuc(a1-2)[Gal(a1-3)]Gal(b1-3)GlcNAc
Outline: as §1

[22] = molecular target: Fuc(a1-2)[Gal(a1-3)]Gal(b1-3)GlcNAc(b1-2)Man(a1-3)[Fuc(a1-2)[Gal(a1-3)]Gal(b1-3)GlcNAc(b1-2)Man(a1-6)]Man(b1-4)GlcNAc(b1-4)GlcNAc
Outline: as §1

[23] = molecular target: Fuc(a1-2)[Gal(a1-3)]Gal(b1-3)GlcNAc(b1-2)Man(a1-3)[Fuc(a1-2)[Gal(a1-3)]Gal(b1-3)GlcNAc(b1-2)Man(a1-6)]Man(b1-4)GlcNAc(b1-4)[Fuc(a1-6)]GlcNAc
Outline: as §1

[24] = molecular target: Fuc(a1-2)[Gal(a1-3)]Gal(b1-3)GlcNAc(b1-3)GalNAc
Outline: as §1

[25] = molecular target: Fuc(a1-2)[Gal(a1-3)]Gal(b1-3)GlcNAc(b1-6)GalNAc
Outline: as §1

[26] = molecular target: Fuc(a1-2)[Gal(a1-3)]Gal(b1-4)Glc
Outline: as §1

[27] = molecular target: Fuc(a1-2)[Gal(a1-3)]Gal(b1-4)GlcNAc
Outline: as §1

[28] = molecular target: Fuc(a1-2)[Gal(a1-3)]Gal(b1-4)GlcNAc(b1-2)Man
Outline: as §1

B1: Di AAL2 (Agrocybe aegerita) (protein)
chain: MTSNVITQDLPIPVASRGFADIVGFGLDGVVIGRNAVNLQPFLAVKNFAQNAGGWLTTKHVRLIADTTGTGKGDIVGFGNAGVYVSVNNGKNTFADPPKMVIANFGYDAGGWRVEKHLRYLADIRKIGRADIIGFGEKGVLVSRNNGGLNFGPATLVLKDFGYDAGGWRLDRHLRFLADVTGNGHLDIVGFGDKHVFISRNNGDGTFAPAKSVIDNFCIDAGGWKIGDHPRFVADLTGDGTADIIGCGKAGCWVALNNGGGVFGQVKLVINDFGTDKGWQAAKHPRFIADLTGNGRGDVVGFGNAGVYVALNNGDGTFQSAKLVLKDFGVQQGWTVSKHRRFVVDLTGDGCADIIGFGEKETLVSYNDGKGNFGPVKALTNDFSFSGGKWAPETTVCWMANLDSSRHPAPAPMTSNVITQDLPIPVASRGFADIVGFGLDGVVIGRNAVNLQPFLAVKNFAQNAGGWLTTKHVRLIADTTGTGKGDIVGFGNAGVYVSVNNGKNTFADPPKMVIANFGYDAGGWRVEKHLRYLADIRKIGRADIIGFGEKGVLVSRNNGGLNFGPATLVLKDFGYDAGGWRLDRHLRFLADVTGNGHLDIVGFGDKHVFISRNNGDGTFAPAKSVIDNFCIDAGGWKIGDHPRFVADLTGDGTADIIGCGKAGCWVALNNGGGVFGQVKLVINDFGTDKGWQAAKHPRFIADLTGNGRGDVVGFGNAGVYVALNNGDGTFQSAKLVLKDFGVQQGWTVSKHRRFVVDLTGDGCADIIGFGEKETLVSYNDGKGNFGPVKALTNDFSFSGGKWAPETTVCWMANLDSSRH
glycan array binding signal (z-score) [1]: -0.185
glycan array binding signal (z-score) [2]: -0.328
glycan array binding signal (z-score) [3]: -0.309
glycan array binding signal (z-score) [4]: -0.287
glycan array binding signal (z-score) [5]: -0.288
glycan array binding signal (z-score) [6]: -0.319
glycan array binding signal (z-score) [7]: -0.341
glycan array binding signal (z-score) [8]: -0.337
glycan array binding signal (z-score) [9]: -0.294
glycan array binding signal (z-score) [10]: -0.32
glycan array binding signal (z-score) [11]: -0.337
glycan array binding signal (z-score) [12]: -0.338
glycan array binding signal (z-score) [13]: -0.323
glycan array binding signal (z-score) [14]: -0.315
glycan array binding signal (z-score) [15]: -0.341
glycan array binding signal (z-score) [16]: -0.322
glycan array binding signal (z-score) [17]: -0.227
glycan array binding signal (z-score) (Fuc(a1-2)Gal6S(b1-4)Glc): -0.334
glycan array binding signal (z-score) [18]: -0.338
glycan array binding signal (z-score) (Fuc(a1-2)[Gal(a1-3)]Gal): -0.338
glycan array binding signal (z-score) [19]: -0.333
glycan array binding signal (z-score) [20]: 0.223
glycan array binding signal (z-score) [21]: -0.338
glycan array binding signal (z-score) [22]: -0.328
glycan array binding signal (z-score) [23]: -0.33
glycan array binding signal (z-score) [24]: -0.312
glycan array binding signal (z-score) [25]: -0.324
glycan array binding signal (z-score) [26]: -0.329
glycan array binding signal (z-score) [27]: -0.335
glycan array binding signal (z-score) [28]: -0.314
